Source: the supplement of paper PMC12578646, “Prodrug florfenicol amine is activated by intrinsic resistance to target Mycobacterium abscessus” (Nature Microbiology, 2025)

Tests used:
Assay in all cases: growth relative to untreated wells; higher = more growth (less inhibition)
[1] = tested on: Mycobacterium abscessus ATCC 19977 ΔwhiB7
Description: (§1)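 384-well two-fold dose series, two replicates; 5 days at 37 °C, then 24 h with resazurin; fluorescence scaled to growth and killed controls.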

[2] = tested on: Mycobacterium abscessus ATCC 19977 Δeis2
Description: as §1

[3] = tested on: Mycobacterium abscessus ATCC 19977 Eis2 Y284*
Description: as §1

[4] = tested on: Mycobacterium abscessus ATCC 19977 Eis2 Y227D
Description: as §1

[5] = tested on: Mycobacterium abscessus ATCC 19977 Eis2 T258R
Description: as §1

[6] = tested on: Mycobacterium abscessus ATCC 19977 WhiB7 F24fs
Description: as §1

[7] = tested on: Mycobacterium abscessus ATCC 19977 Eis2 E120fs
Description: as §1

[8] = tested on: Mycobacterium abscessus ATCC 19977 Eis2 Y255*
Description: as §1

[9] = tested on: Mycobacterium abscessus ATCC 19977 WhiB7 A51T
Description: as §1

[10] = tested on: Mycobacterium abscessus ATCC 19977 WhiB7 L37P
Description: as §1

[11] = tested on: Mycobacterium abscessus ATCC 19977 WhiB7 T70fs
Description: as §1

[12] = tested on: Mycobacterium abscessus ATCC 19977
Description: as §1

CC(=O)NC[C@H]1CN(c2ccc(N3CCOCC3)c(F)c2)C(=O)O1 [linezolid]
Conditions | growth [%]
[1], 0.125 µg/mL | 91.4 ± 7.8
[1], 0.25 µg/mL | 91.4 ± 1.4
[1], 0.5 µg/mL | 94.345 ± 0.051
[1], 1 µg/mL | 112 ± 14
[1], 2 µg/mL | 126 ± 4.1
[1], 4 µg/mL | 73.9 ± 23
[1], 8 µg/mL | 10.9 ± 3.2
[1], 16 µg/mL | -2.35 ± 2.5
[1], 32 µg/mL | -5.07 ± 4.6
[1], 64 µg/mL | -5.38 ± 4.3
[1], 128 µg/mL | -4.91 ± 4.4
[1], 256 µg/mL | -5.5 ± 4.5
[2], 0.125 µg/mL | 90.4 ± 5.9
[2], 0.25 µg/mL | 99.35 ± 0.39
[2], 0.5 µg/mL | 95.8 ± 2.8
[2], 1 µg/mL | 108 ± 2.2
[2], 2 µg/mL | 96 ± 33
[2], 4 µg/mL | 24.9 ± 0.7
[2], 8 µg/mL | 5.89 ± 7.2
[2], 16 µg/mL | -3.91 ± 0.61
[2], 32 µg/mL | -4.067 ± 0.024
[2], 64 µg/mL | 5.75 ± 14
[2], 128 µg/mL | -3.57 ± 0.37
[2], 256 µg/mL | -3.14 ± 0.095
[3], 0.125 µg/mL | 97.09 ± 0.75
[3], 0.25 µg/mL | 100.9 ± 1
[3], 0.5 µg/mL | 104.2 ± 0.82
[3], 1 µg/mL | 111.8 ± 0.13
[3], 2 µg/mL | 110.5 ± 0.83
[3], 4 µg/mL | 19.3 ± 8.6
[3], 8 µg/mL | 1.53 ± 1
[3], 16 µg/mL | -2.62 ± 0.36
[3], 32 µg/mL | -3.83 ± 0.31
[3], 64 µg/mL | -2.98 ± 0.12
[3], 128 µg/mL | -2.93 ± 0.29
[3], 256 µg/mL | -2.81 ± 0.24
[4], 0.125 µg/mL | 99.1 ± 1.4
[4], 0.25 µg/mL | 104 ± 9.3
[4], 0.5 µg/mL | 109 ± 2.8
[4], 1 µg/mL | 119 ± 2
[4], 2 µg/mL | 119 ± 1.8
[4], 4 µg/mL | 52.2 ± 15
[4], 8 µg/mL | 8.42 ± 1.3
[4], 16 µg/mL | -0.55 ± 0.64
[4], 32 µg/mL | -2.38 ± 0.52
[4], 64 µg/mL | -1.27 ± 0.24
[4], 128 µg/mL | -1.84 ± 0.11
[4], 256 µg/mL | -0.956 ± 0.8
[5], 0.125 µg/mL | 83.8 ± 6.4
[5], 0.25 µg/mL | 99.6 ± 3.7
[5], 0.5 µg/mL | 96.3 ± 2.5
[5], 1 µg/mL | 110 ± 4.4
[5], 2 µg/mL | 102 ± 19
[5], 4 µg/mL | 20.4 ± 8.6
[5], 8 µg/mL | 1.1 ± 1.7
[5], 16 µg/mL | -2.86 ± 0.4
[5], 32 µg/mL | -3.21 ± 0.34
[5], 64 µg/mL | -3.31 ± 0.14
[5], 128 µg/mL | -3.52 ± 0.085
[5], 256 µg/mL | -3 ± 0.28
[6], 0.125 µg/mL | 98.3 ± 13
[6], 0.25 µg/mL | 104 ± 3.4
[6], 0.5 µg/mL | 100 ± 1.9
[6], 1 µg/mL | 113 ± 1.6
[6], 2 µg/mL | 113 ± 1.8
[6], 4 µg/mL | 34.7 ± 9.5
[6], 8 µg/mL | 5.68 ± 1.8
[6], 16 µg/mL | -3.04 ± 0.27
[6], 32 µg/mL | -2.78 ± 0.55
[6], 64 µg/mL | -2.86 ± 0.77
[6], 128 µg/mL | -2.79 ± 0.75
[6], 256 µg/mL | -2.61 ± 0.7
[7], 0.125 µg/mL | 93.06 ± 0.37
[7], 0.25 µg/mL | 106 ± 12
[7], 0.5 µg/mL | 109 ± 1.9
[7], 1 µg/mL | 118 ± 9.6
[7], 2 µg/mL | 120 ± 9.6
[7], 4 µg/mL | 35.5 ± 2.7
[7], 8 µg/mL | 2.29 ± 1.9
[7], 16 µg/mL | -2.349 ± 0.01
[7], 32 µg/mL | 1.87 ± 7.6
[7], 64 µg/mL | -2.954 ± 0.0087
[7], 128 µg/mL | -3.07 ± 0.28
[7], 256 µg/mL | -2.64 ± 0.05
[8], 0.125 µg/mL | 95.5 ± 10
[8], 0.25 µg/mL | 100 ± 6.4
[8], 0.5 µg/mL | 102.6 ± 0.21
[8], 1 µg/mL | 110 ± 5.5
[8], 2 µg/mL | 115 ± 6.1
[8], 4 µg/mL | 33.8 ± 4
[8], 8 µg/mL | 3.81 ± 5.7
[8], 16 µg/mL | -3.98 ± 2.2
[8], 32 µg/mL | -4.78 ± 2.5
[8], 64 µg/mL | -4.33 ± 2.8
[8], 128 µg/mL | -4.25 ± 2.4
[8], 256 µg/mL | -4.11 ± 2.8
[9], 0.125 µg/mL | 95.8 ± 6.1
[9], 0.25 µg/mL | 107 ± 4.8
[9], 0.5 µg/mL | 103 ± 8
[9], 1 µg/mL | 118 ± 4.8
[9], 2 µg/mL | 127 ± 5.5
[9], 4 µg/mL | 68.8 ± 12
[9], 8 µg/mL | 8.82 ± 6.8
[9], 16 µg/mL | -2.94 ± 0.69
[9], 32 µg/mL | 6.84 ± 15
[9], 64 µg/mL | -3.23 ± 0.54
[9], 128 µg/mL | -2.79 ± 0.43
[9], 256 µg/mL | -2.78 ± 0.23
[10], 0.125 µg/mL | 99.8 ± 5.2
[10], 0.25 µg/mL | 104 ± 0.19
[10], 0.5 µg/mL | 107 ± 2.9
[10], 1 µg/mL | 115.3 ± 0.13
[10], 2 µg/mL | 118 ± 7.1
[10], 4 µg/mL | 63.9 ± 8.1
[10], 8 µg/mL | 11.6 ± 0.54
[10], 16 µg/mL | -1.59 ± 0.49
[10], 32 µg/mL | -3.09 ± 0.28
[10], 64 µg/mL | -3.12 ± 0.41
[10], 128 µg/mL | -2.64 ± 0.088
[10], 256 µg/mL | -2.49 ± 0.39
[11], 0.125 µg/mL | 91 ± 1.7
[11], 0.25 µg/mL | 107 ± 3.5
[11], 0.5 µg/mL | 96.4 ± 4.4
[11], 1 µg/mL | 110 ± 2
[11], 2 µg/mL | 116 ± 5.7
[11], 4 µg/mL | 39.1 ± 14
[11], 8 µg/mL | 6.38 ± 6
[11], 16 µg/mL | -4.91 ± 1.4
[11], 32 µg/mL | -5.61 ± 1.7
[11], 64 µg/mL | -4.54 ± 1.1
[11], 128 µg/mL | -4.77 ± 0.9
[11], 256 µg/mL | -4.13 ± 0.7
[12], 0.125 µg/mL | 96.14 ± 0.43
[12], 0.25 µg/mL | 100.2 ± 0.18
[12], 0.5 µg/mL | 102 ± 6
[12], 1 µg/mL | 108 ± 12
[12], 2 µg/mL | 102 ± 14
[12], 4 µg/mL | 24.6 ± 7.7
[12], 8 µg/mL | 3.06 ± 4.4
[12], 16 µg/mL | -2.3 ± 1.1
[12], 32 µg/mL | -2.87 ± 0.53
[12], 64 µg/mL | 2.51 ± 7.4
[12], 128 µg/mL | -2.46 ± 0.35
[12], 256 µg/mL | -1.75 ± 0.27

± gives the standard deviation of the averaged measurements. M. abscessus ATCC 19977 and its deletion, point and complemented mutants after 5 days of drug at 37 °C plus 24 h of resazurin. Growth in % of untreated wells at the dose given (lower = more inhibition); checkerboards give % inhibition (higher = more inhibition); IC50 from the fitted curve (lower = more potent). No active / inactive call. IC50 values come from the same 384-well curves. Growth is not capped and can exceed 100%. The direction of the checkerboard scale is read from the raw signals. Capreomycin is a mixture.
